Hit rate of the full screen: of about 370,000 compounds, about 150 (0.041%) were called active. This list was built around the results that the source calls inconclusive (neither active nor inactive); the mix of calls is not that of the screen. Calls come from the whole dose curve; as a rule, active = well fitted inhibition curve with a large enough effect; inconclusive = small, poorly fitted or top-dose-only effect; inactive = flat fitted curve, though single readings scatter. No potency is given beside an inconclusive call; the fits are too rough.
Target: Beta-lactamase (Escherichia coli (strain K12)) (UniProt P00811)
Assay: qHTS Inhibitors of AmpC Beta-Lactamase (assay with detergent); note: nearly all actives have a fitted effect of over 25% in size
Details: AmpC hydrolysis of nitrocefin, absorbance 480 nm, 0.01% Triton; series mostly up to 114 µM
Summary of the method: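 20 mM phosphate pH 7.0 + 0.01% (detergent screen) or 0.0001% Triton X-100; 5.3 nM AmpC reagent; cpd preinc 15 min RT; nitrocefin (800 uM stock) to start; A480 q20 s × 4 min; Activity was normalised to no-enzyme and no-compound control wells.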
Potency is the fitted concentration of half-maximal effect; tags give direction and shape of the fitted curve.

UniProt P00811, sequence (P00811 whole entry, looked up): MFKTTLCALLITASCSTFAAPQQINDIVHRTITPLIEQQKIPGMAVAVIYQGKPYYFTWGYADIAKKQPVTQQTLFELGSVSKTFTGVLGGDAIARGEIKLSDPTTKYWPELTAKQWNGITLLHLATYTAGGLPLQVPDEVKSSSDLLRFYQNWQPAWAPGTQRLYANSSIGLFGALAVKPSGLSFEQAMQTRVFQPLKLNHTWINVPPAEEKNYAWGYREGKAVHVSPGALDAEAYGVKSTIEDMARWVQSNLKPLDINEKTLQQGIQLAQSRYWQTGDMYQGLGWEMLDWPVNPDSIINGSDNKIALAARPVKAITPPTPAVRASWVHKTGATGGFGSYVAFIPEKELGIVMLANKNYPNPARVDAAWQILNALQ

**Q.** How did the Potency turn out when `COC(=O)C1CCN(C(c2ccccc2Cl)c2sc3nc(-c4ccco4)nn3c2O)CC1` (stereo unspecified) was run?
**A.** inactive

**Q.** With `CCCc1cc(=O)[nH]c(SCC(=O)c2cc(C)n(CCOC)c2C)n1` as the molecule, how does the Potency read?
**A.** inconclusive [inhibitor, full curve, poor fit]

**Q.** For `COc1ccc(C(CNC(=O)c2cc3ccccc3o2)N2CCCCC2)cc1` (stereo unspecified), which Potency is on record?
**A.** inactive

**Q.** How did the Potency turn out when `COc1ccc(/C(N)=N/OC(=O)Cc2ccccc2OC)cc1` was run?
**A.** inactive

**Q.** How did the Potency turn out when `COc1ccc(CNC(=O)CCCc2ccccc2)cc1` was run?
**A.** inconclusive [inhibitor, full curve]

**Q.** How did the Potency turn out when `COc1cc2c(cc1OC)-c1cc(NC3CC3)nc(=O)n1CC2` was run?
**A.** inconclusive [inhibitor, single point]

**Q.** With `CC(=O)Nc1ccc(NC(=O)c2cc(-c3cc(C)cc(C)c3O)n[nH]2)cc1` as the molecule, how does the Potency read?
**A.** inactive

**Q.** Which Potency does the source give for `CSc1cccc(NC(=O)C(c2ccccc2)N2Cc3ccccc3C2=O)c1` (stereo unspecified) here?
**A.** inactive

**Q.** With `CCN1CCN(c2ccc(S(=O)(=O)N3CCCCC3)cc2NC(=O)c2cccc(F)c2)CC1` as the molecule, how does the Potency read?
**A.** inconclusive [inhibitor, full curve, poor fit]

**Q.** `CN(C)S(=O)(=O)c1ccc(N2CCCC2)c(C(=O)Nc2ccccc2N2CCOCC2)c1` was tested. Which Potency did it give?
**A.** inconclusive [inhibitor, full curve, poor fit]

**Q.** Which Potency does the source give for `CCN(CC)c1ccc(S(=O)(=O)N2CCCCC2)cc1NC(=O)C1CSC2(C)CCC(=O)N12` (stereo unspecified) here?
**A.** inactive

**Q.** With `Cc1[nH]nc2c1C(c1cn[nH]c1-c1ccc(F)cc1)C(C#N)=C(N)O2` (stereo unspecified) as the molecule, how does the Potency read?
**A.** inconclusive [inhibitor, full curve, poor fit]

**Q.** Which Potency does the source give for `C=CCOc1ccccc1/C=N/NC(=O)Cc1ccccc1` here?
**A.** inconclusive [inhibitor, full curve, poor fit]

**Q.** How did the Potency turn out when `O=C(/C=C/c1ccco1)OCc1nnc(-c2ccccc2)o1` was run?
**A.** inactive

**Q.** How did the Potency turn out when `CC(=O)[C@H]1[C@H]([C@H](O)[C@H](O)CO)O[C@](O)(C(=O)O)C[C@@H]1O` was run?
**A.** inconclusive [inhibitor, partial curve, poor fit]

**Q.** `COC(=O)Nc1ccc(OCc2ccccc2)cc1` was tested. Which Potency did it give?
**A.** inconclusive [inhibitor, partial curve, poor fit]

**Q.** Which Potency does the source give for `Cc1cccc(NC(=S)NC2CC3CCCC(C2)N3Cc2cccs2)c1` (stereo unspecified) here?
**A.** inconclusive [inhibitor, full curve, poor fit]

**Q.** How did the Potency turn out when `NNC(=O)c1oc2nc(-c3ccco3)cc(-c3ccco3)c2c1N` was run?
**A.** inactive

**Q.** For `O=C(CN1CCCC1)Nc1ccccc1C(=O)c1ccccc1`, which Potency is on record?
**A.** inactive

**Q.** With `CC(=O)NC1=NN(C(C)=O)C2(CCCCC2)S1` as the molecule, how does the Potency read?
**A.** inconclusive [inhibitor, partial curve, poor fit]

**Q.** For `CC(C)Cn1c2nc3ccccc3nc2c2c(=O)n(CCN3CCOCC3)cnc21`, which Potency is on record?
**A.** inconclusive [inhibitor, full curve, poor fit]

**Q.** How did the Potency turn out when `O=C(CCN1CCOCC1)c1ccc2c(c1)OCCO2` was run?
**A.** inconclusive [inhibitor, full curve, poor fit]

**Q.** With `O=C(N/N=C/c1cccs1)c1cccc(S(=O)(=O)Nc2ccc(Cl)cc2)c1` as the molecule, how does the Potency read?
**A.** inactive

**Q.** Which Potency does the source give for `COc1ccc(Oc2nc(-c3cccnc3)nc3ccccc23)cc1` here?
**A.** inactive

**Q.** `CCOC(=O)CC(/C(C)=N\O)c1ccccc1` (stereo unspecified) was tested. Which Potency did it give?
**A.** inconclusive [inhibitor, full curve, poor fit]

**Q.** How did the Potency turn out when `Cc1ccc(NC(=O)c2ccc(COc3ccc4c(c3)CCC4)cc2)c(C)c1` was run?
**A.** inactive

**Q.** With `COc1cccc(-c2cc(C(F)(F)F)nc(-n3cc(Cl)cn3)n2)c1` as the molecule, how does the Potency read?
**A.** inconclusive [inhibitor, full curve, poor fit]

**Q.** For `COc1ccc(OC)c(S(=O)(=O)NCC(c2ccc(F)cc2)N2CCN(C)CC2)c1` (stereo unspecified), which Potency is on record?
**A.** inconclusive [inhibitor, full curve, poor fit]

**Q.** `CCCOC(=O)c1ccc(NS(=O)(=O)c2cccs2)cc1` was tested. Which Potency did it give?
**A.** inconclusive [inhibitor, full curve, poor fit]

**Q.** For `CC1Oc2ccccc2N(CC(=O)N2CCCC2)C1=O` (stereo unspecified), which Potency is on record?
**A.** inactive

**Q.** Which Potency does the source give for `CCn1cc(C(=O)NCc2ccc(C)o2)c2cc(OC)c(OC)cc2c1=O` here?
**A.** inconclusive [inhibitor, partial curve, poor fit]

**Q.** With `CCCCc1cn([C@@H](CCCCNC(=O)OC(C)(C)C)C(=O)N2CCN(C(=O)OC(C)(C)C)CC2)nn1` as the molecule, how does the Potency read?
**A.** inactive

**Q.** Which Potency does the source give for `S=C(N/N=C1\CCc2ccccc21)NC1CCCCC1` here?
**A.** inactive

**Q.** With `COc1ccc(-c2nc(C(F)(F)F)c(OC)o2)cc1OC` as the molecule, how does the Potency read?
**A.** inconclusive [inhibitor, partial curve]

**Q.** With `O=C(C(c1ccccc1)c1ccccc1)N1CCN(Cc2ccccn2)CC1` as the molecule, how does the Potency read?
**A.** inconclusive [inhibitor, full curve, poor fit]

**Q.** Which Potency does the source give for `O=C(c1ccco1)N1CCN(C(=O)c2cc(-c3ccccn3)nc3ccccc23)CC1` here?
**A.** inactive

**Q.** `C/C(=N\NC(=O)c1cccc(Cl)c1)c1cccc(NC(=O)c2ccco2)c1` was tested. Which Potency did it give?
**A.** inactive

**Q.** How did the Potency turn out when `NNC(=O)CN1C(CN2CCOCC2)=Nc2ccc(Br)cc2C1c1ccccc1` (stereo unspecified) was run?
**A.** inactive

**Q.** With `CCOC(=O)CN1CC23C=CC(O2)C(C(=O)NCc2ccccc2OC)C3C1=O` (stereo unspecified) as the molecule, how does the Potency read?
**A.** inconclusive [inhibitor, full curve, poor fit]

**Q.** With `Cc1ccc(S(=O)(=O)NNc2ccccc2)cc1` as the molecule, how does the Potency read?
**A.** inconclusive [inhibitor, partial curve, poor fit]

**Q.** How did the Potency turn out when `COc1ccc(NC(=S)NC(NC(=O)CCl)C(Cl)(Cl)Cl)c([N+](=O)[O-])c1` (stereo unspecified) was run?
**A.** inactive

**Q.** `CCn1c2ccccc2c2cc(CN3CCN(S(=O)(=O)CC)CC3)ccc21` was tested. Which Potency did it give?
**A.** inconclusive [inhibitor, full curve]

**Q.** With `CN(C)c1ccc(/C=N/N=C/c2ccccc2O)cc1` as the molecule, how does the Potency read?
**A.** inactive

**Q.** `O=C(NCc1ccc(F)cc1)C1CCCN(C(=O)Nc2ccccc2)C1` (stereo unspecified) was tested. Which Potency did it give?
**A.** inconclusive [inhibitor, partial curve, poor fit]

**Q.** With `COc1ccc(-c2nn(-c3ccccc3)cc2C(=O)NC2CCC(C)CC2)cc1` (stereo unspecified) as the molecule, how does the Potency read?
**A.** inconclusive [inhibitor, partial curve, poor fit]

**Q.** With `COc1ccc(/C=C/C(=O)Oc2ccc(/C=N\NC(=O)c3ccc(F)cc3)cc2)cc1` as the molecule, how does the Potency read?
**A.** inconclusive [inhibitor, single point]

Source: PubChem BioAssay AID485294 (National Center for Advancing Translational Sciences (NCATS), 2010)
